These results are taken from patent publication US20240343788A1 (published 2024).

The target in one experiment is T1, Activin AB (human, UniProt P08476 311-426; P09529 293-407).
T1 construct: the beta A / beta B heterodimer is general knowledge
T1 sequence (looked up) 1: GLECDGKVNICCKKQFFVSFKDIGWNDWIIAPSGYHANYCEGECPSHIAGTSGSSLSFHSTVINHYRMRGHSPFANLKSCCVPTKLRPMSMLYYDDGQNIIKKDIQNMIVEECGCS
T1 sequence (looked up) 2: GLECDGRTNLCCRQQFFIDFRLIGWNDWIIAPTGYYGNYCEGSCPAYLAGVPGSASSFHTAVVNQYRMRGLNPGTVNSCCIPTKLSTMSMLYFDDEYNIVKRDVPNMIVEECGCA
Briefly: BLI (Octet RED96), antagonist captured on biosensor, ligand in solution. The text has this: (§1) The binding sensorgrams were collected using the 8-channel detection mode on the biosensor.
A general note: Biolayer interferometry detects binding as a change in optical thickness at a sensor tip.

Experiment [1] addresses T2, TGF-β1 (human, UniProt P01137 part only).
T2 construct: also called TGF-31 (misprint in the text)
The description is as above.
Description: as §1

The target in experiment [2] is T3, Activin B (human, UniProt P09529 293-407).
T3 construct: also called human activin B
T3 sequence (looked up): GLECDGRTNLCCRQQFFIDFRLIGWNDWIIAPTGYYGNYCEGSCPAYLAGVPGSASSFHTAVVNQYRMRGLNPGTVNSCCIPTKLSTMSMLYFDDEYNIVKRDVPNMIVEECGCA
Described as above.
Description: as §1

The target of experiment [3] is T4, TGF-β3 (human, UniProt P10600 301-412).
T4 construct: also called TGF-33 (misprint in the text)
T4 sequence (looked up): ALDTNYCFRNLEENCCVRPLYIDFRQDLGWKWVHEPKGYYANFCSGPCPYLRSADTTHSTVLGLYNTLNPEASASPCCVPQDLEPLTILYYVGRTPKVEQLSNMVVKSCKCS
The experiment is described as above.
Description: as §1

In experiment [4] the target is T5, Activin A (human).
T5 construct: also called human activin A
Described as above.
Description: as §1

The target of experiment [5] is T6, GDF-8 (human).
T6 construct: also called myostatin; Myostatin (GDF-8)
Described as above.
Description: as §1

Experiment [6] concerns the target T7, GDF-11 (human, UniProt O95390 299-407). The description is as above.
Description: as §1

The target in experiment [7] is T3, Activin B. Briefly: cell-based or functional assay.
The target of experiment [8] is T5, Activin A. Briefly: cell-based or functional assay.
Experiment [9] has as its target T2, TGF-β1. Put plainly: cell-based or functional assay.
The target in experiment [10] is T4, TGF-β3. Put plainly: cell-based or functional assay.
Experiment [11] concerns the target T6, GDF-8. Put plainly: cell-based or functional assay.
Experiment [12] has as its target T7, GDF-11. Briefly: cell-based or functional assay.

T2 sequence (P01137 279-390 limits assumed): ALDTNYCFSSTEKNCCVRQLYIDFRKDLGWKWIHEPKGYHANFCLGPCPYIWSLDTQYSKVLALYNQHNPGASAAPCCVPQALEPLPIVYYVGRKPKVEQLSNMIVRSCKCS
T7 sequence (O95390 299-407 limits assumed): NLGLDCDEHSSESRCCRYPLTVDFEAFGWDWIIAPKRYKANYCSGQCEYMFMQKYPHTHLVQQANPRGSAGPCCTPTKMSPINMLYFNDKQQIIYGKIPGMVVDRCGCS

B1: A118 (Fc fusion)
chain: GNCWLRQAKNGRCQVLYKTELSKEECCSTGRLSTSWTEEDVNDNTLFKWMIFNGGAPNCIPCKETCENVDCGPGQSCVVDQTGSPRCVCAPDCSNITWKGPVCGLDGKTYRNECALLKARCKEQPELEVQYQGRCKKTCRDVFCPGSSTCVVDQTNNAYCVTCNRICPEPASSEQYLCGNDGVTYSSACHLRKATCLLGRSIGLAYEGKCIKAKSCEDIQCTGGKKCLWDFKVGRGRCSLCDELCPDSKSDEPVCASDNATYASECAMKEAACSSGVLLEVKHSGSCNSISEDTEEEEEDEDQDYSFPISSILEWGGGGSGGGGSGGGGS[no letters for human IgG1 Fc]GGGGSGGGGSGGGGSTIPPHVQKSDVEMEAQKDEIICPSCNRTAHPLRHINNDMIVTDNNGAVKFPQLCKFCDVRFSTCDNQKSCMSNCSITSICEKPQEVCVAVWRKNDENITLETVCHDPKLPYHDFILEDAASPKCIMKEKKKPGETFFMCSCSSDECNDNIIFSEEYNTSNPD
notes: also called multispecific antagonist molecule A118
With B1, the Kd (in general, a measure of binding affinity in units of concentration) in the experiment with Activin AB is about 0.001 nM; with TGF-β1 [1] it was about 0.612 nM; with Activin B [2] it was about 0.001 nM; with TGF-β3 [3], about 0.001 nM; in the experiment with Activin A [4], about 0.001 nM; with GDF-8 [5] it was about 0.001 nM. In the experiment with GDF-11 [6], this molecule came in with a Kd of about 9.15 nM. In addition, in the experiment with Activin B [7], the “IC50; neutralisation of Activin B signalling, C2C12-CAGA-luc Smad2/3 luciferase reporter cells (RLU)” value is 1.9 nM. Besides, the “IC50; neutralisation of Activin A signalling, C2C12-CAGA-luc Smad2/3 luciferase reporter cells (RLU)” value with Activin A [8] was found to be 8.4 nM. In the experiment with TGF-β1 [9], the “IC50; neutralisation of TGF-β1 signalling, C2C12-CAGA-luc Smad2/3 luciferase reporter cells (RLU)” value was found to be 3.8 nM. In the experiment with TGF-β3 [10], the “IC50; neutralisation of TGF-β3 signalling, C2C12-CAGA-luc Smad2/3 luciferase reporter cells (RLU)” value came to 0.3 nM. Also, the “IC50; neutralisation of GDF-8 signalling, C2C12-CAGA-luc Smad2/3 luciferase reporter cells (RLU)” value (shortened to “IC50; neutralisation of GDF-8 signalling”) in the experiment with GDF-8 [11] was determined as 0.6 nM. Besides, in the experiment with GDF-11 [12], the “IC50; neutralisation of GDF-11 signalling, C2C12-CAGA-luc Smad2/3 luciferase reporter cells (RLU)” value was determined as 15 nM.

B2: A216 (Fc fusion)
chain: [no letters for human IgG1 Fc]GGGGSGGGGSGGGGSETQECLFFNANWEKDRTNQTGVEPCYGDKDKRRHCFATWKNISGSIEIVKQGCWLDDINCYDRTDCVEKKDSPEVYFCCCEGNMCNEKFSYFPEMEVTQPTSNPVTPKPPGGGGSGGGGSGGGGSTIPPHVQKSDVEMEAQKDEIICPSCNRTAHPLRHINNDMIVTDNNGAVKFPQLCKFCDVRFSTCDNQKSCMSNCSITSICEKPQEVCVAVWRKNDENITLETVCHDPKLPYHDFILEDAASPKCIMKEKKKPGETFFMCSCSSDECNDNIIFSEEYNTSNPD
On to B2, for which the Kd was about 0.001 nM in the experiment with Activin AB; about 0.001 nM with TGF-β1 [1]; about 0.0021 nM with TGF-β3 [3]; about 0.112 nM with Activin A [4]; about 0.00195 nM in the experiment with GDF-8 [5]; about 0.005 nM with GDF-11 [6].

B3: A116 (Fc fusion)
chain: [no letters for about 120 residues]GGGGSGGGGSGGGGS[no letters for human IgG1 Fc]GGGGSGGGGSGGGGSTIPPHVQKSDVEMEAQKDEIICPSCNRTAHPLRHINNDMIVTDNNGAVKFPQLCKFCDVRFSTCDNQKSCMSNCSITSICEKPQEVCVAVWRKNDENITLETVCHDPKLPYHDFILEDAASPKCIMKEKKKPGETFFMCSCSSDECNDNIIFSEEYNTSNPD
notes: also called multispecific antagonist molecule A116; multispecific polypeptide antagonist A116
Regarding B3, the Kd with Activin AB was about 0.001 nM; with TGF-β1 [1], about 0.407 nM; with Activin B [2], about 0.001 nM; with TGF-β3 [3] it was about 0.001 nM; with Activin A [4] it was about 0.001 nM; in the experiment with GDF-8 [5], about 0.001 nM. This molecule showed a Kd with GDF-11 [6] of about 8.35 nM. For the same molecule, the “IC50; neutralisation of Activin B signalling, C2C12-CAGA-luc Smad2/3 luciferase reporter cells (RLU)” value in the experiment with Activin B [7] amounted to 0.2 nM. Also, the “IC50; neutralisation of Activin A signalling, C2C12-CAGA-luc Smad2/3 luciferase reporter cells (RLU)” value with Activin A [8] came to 1.9 nM. In addition, the “IC50; neutralisation of TGF-β1 signalling, C2C12-CAGA-luc Smad2/3 luciferase reporter cells (RLU)” value in the experiment with TGF-β1 [9] worked out at 4.8 nM. For the same molecule, the “IC50; neutralisation of TGF-β3 signalling, C2C12-CAGA-luc Smad2/3 luciferase reporter cells (RLU)” value in the experiment with TGF-β3 [10] turned out to be 0.1 nM. For the same molecule, the “IC50; neutralisation of GDF-8 signalling” value with GDF-8 [11] came out at 1.7 nM. For the same molecule, the “IC50; neutralisation of GDF-11 signalling, C2C12-CAGA-luc Smad2/3 luciferase reporter cells (RLU)” value with GDF-11 [12] turned out to be 1.6 nM.

B4: A115 (Fc fusion)
chain: [no letters for about 120 residues]GGGGSGGGGSGGGGS[no letters for human IgG1 Fc]GGGGSGGGGSGGGGSTIPPHVQKSVNNDMIVTDNNGAVKFPQLCKFCDVRFSTCDNQKSCMSNCSITSICEKPQEVCVAVWRKNDENITLETVCHDPKLPYHDFILEDAASPKCIMKEKKKPGETFFMCSCSSDECNDNIIFSEEYNTSNPD
notes: also called multispecific antagonist molecule A115; multispecific polypeptide antagonist A115
In the case of B4, the Kd with Activin AB was about 0.001 nM; in the experiment with TGF-β1 [1], about 0.443 nM; in the experiment with TGF-β3 [3], about 0.001 nM; with Activin A [4], about 0.0118 nM; with GDF-8 [5], about 0.001 nM; with GDF-11 [6] it was about 6.06 nM. In the experiment with Activin B [7], the “IC50; neutralisation of Activin B signalling, C2C12-CAGA-luc Smad2/3 luciferase reporter cells (RLU)” value turned out to be 0.2 nM. The “IC50; neutralisation of Activin A signalling, C2C12-CAGA-luc Smad2/3 luciferase reporter cells (RLU)” value with Activin A [8] was found to be 1.7 nM. Further, the “IC50; neutralisation of TGF-β1 signalling, C2C12-CAGA-luc Smad2/3 luciferase reporter cells (RLU)” value with TGF-β1 [9] came to 3.2 nM. For the same molecule, the “IC50; neutralisation of TGF-β3 signalling, C2C12-CAGA-luc Smad2/3 luciferase reporter cells (RLU)” value with TGF-β3 [10] came out at 0.2 nM. Also, the “IC50; neutralisation of GDF-8 signalling” value with GDF-8 [11] came to 0.8 nM. Moreover, the “IC50; neutralisation of GDF-11 signalling, C2C12-CAGA-luc Smad2/3 luciferase reporter cells (RLU)” value in the experiment with GDF-11 [12] was found to be 2.6 nM.

B5: A117 (Fc fusion)
chain: GNCWLRQAKNGRCQVLYKTELSKEECCSTGRLSTSWTEEDVNDNTLFKWMIFNGGAPNCIPCKETCENVDCGPGQSCVVDQTGSPRCVCAPDCSNITWKGPVCGLDGKTYRNECALLKARCKEQPELEVQYQGRCKKTCRDVFCPGSSTCVVDQTNNAYCVTCNRICPEPASSEQYLCGNDGVTYSSACHLRKATCLLGRSIGLAYEGKCIKAKSCEDIQCTGGKKCLWDFKVGRGRCSLCDELCPDSKSDEPVCASDNATYASECAMKEAACSSGVLLEVKHSGSCNSISEDTEEEEEDEDQDYSFPISSILEWGGGGSGGGGSGGGGS[no letters for human IgG1 Fc]GGGGSGGGGSGGGGSTIPPHVQKSVNNDMIVTDNNGAVKFPQLCKFCDVRFSTCDNQKSCMSNCSITSICEKPQEVCVAVWRKNDENITLETVCHDPKLPYHDFILEDAASPKCIMKEKKKPGETFFMCSCSSDECNDNIIFSEEYNTSNPD
notes: also called multispecific antagonist molecule A117
Consider B5, for which the Kd with Activin AB was about 0.00517 nM; with TGF-β1 [1], about 0.534 nM; with Activin B [2], about 0.126 nM; with TGF-β3 [3], about 0.001 nM; with Activin A [4], about 0.195 nM; in the experiment with GDF-8 [5], about 0.00517 nM. The molecule also came in with a Kd in the experiment with GDF-11 [6] of about 6.12 nM. Further, the “IC50; neutralisation of Activin B signalling, C2C12-CAGA-luc Smad2/3 luciferase reporter cells (RLU)” value in the experiment with Activin B [7] amounted to 1.1 nM. Further, the “IC50; neutralisation of Activin A signalling, C2C12-CAGA-luc Smad2/3 luciferase reporter cells (RLU)” value with Activin A [8] was 11 nM. Further, the “IC50; neutralisation of TGF-β1 signalling, C2C12-CAGA-luc Smad2/3 luciferase reporter cells (RLU)” value in the experiment with TGF-β1 [9] was 4.3 nM. Further, the “IC50; neutralisation of TGF-β3 signalling, C2C12-CAGA-luc Smad2/3 luciferase reporter cells (RLU)” value with TGF-β3 [10] was 0.4 nM. Further, in the experiment with GDF-8 [11], the “IC50; neutralisation of GDF-8 signalling” value turned out to be 1.2 nM. For the same molecule, the “IC50; neutralisation of GDF-11 signalling, C2C12-CAGA-luc Smad2/3 luciferase reporter cells (RLU)” value in the experiment with GDF-11 [12] came to 11 nM.

B6: A167 (bispecific antibody)
heavy: QVQLVQSGAEVKKPGASVKVSCKASGYTFTSYGLSWVRQAPGQGLEWMGWIIPYNGNTNSAQKLQGRVTMTTDTSTSTAYMELRSLRSDDTAVYFCARDRDYGVNYDAFDIWGQGTMVTVSSGGGGSGGGGSGGGGSQVQLVQSGAEVKKPGSSVKVSCKASGYTFSSNVISWVRQAPGQGLEWMGGVIPIVDIANYAQRFKGRVTITADESTSTTYMELSSLRSEDTAVYYCASTLGLVLDAMDYWGQGTLVTVSSASTKGPSVFPLAPCSRSTSESTAALGCLVKDYFPEPVTVSWNSGALTSGVHTFPAVLQSSGLYSLSSVVTVPSSSLGTKTYTCNVDHKPSNTKVDKRV[no letters for human IgG4 Fc]
light: not shown
notes: also called antibody-based multispecific antagonist A167
Turning to B6, the dissociation constant (Kd) with TGF-β1 [1] is about 0.001 nM.
